According to patent US20250313820A1, “PEPTIDES WITH MULTIVALENT EFFECTS” (In2Cure AB, priority 2021, published 2025):
Not every detail of the peptide structures is certain; ends, links or a residue may be inferred. Where a SMILES comes first, the peptide text is derived from it. Bridges are numbered along the chain shown (N, C = ends). [ ]: non-standard residue; d: D form. S5 = C=CCCC[C@](C)(N)C(=O)O

Legend:
[1] = Oligomerisation in solution (statements without method); assay type: physicochemical; conditions: Example 5
[2] = tested on: cytokines released from human blood stimulated with E. coli LPS; assay: Whole blood assay, cytokines overall (TNF-α and IL-1β); assay type: cell-based; conditions: for anti-inflammatory activity in LPS-stimulated blood (TNF-α and IL-1β release), in words: 25% blood, 100 ng mL^−1 LPS, peptide added before or together with LPS, 24 h
Protocol: Fresh venous blood was collected in the presence of lepirudin (50 μg mL^−1) from healthy donors. […] After 24 h incubation at 37° C. in 5% CO2, the plate was centrifuged for 5 min at 1000 g and then the supernatants were collected and stored at −80° C. before analysis. The experiment was performed at least 4 times by using blood from different donors each time. To evaluate the healing properties of the peptides, the blood was stimulated with 100 ng mL^−1 LPS and after 30 min incubation at 37° C. was treated with increasing doses of four peptides. […] Then the blood was stimulated with 100 ng mL^−1 of LPS.
(§1) Plasma obtained from blood experiment was used to evaluate cytokine release. Human inflammation DuoSet® ELISA Kit (R&D Systems) specific for TNF-α and IL-1β was used according to the manufacturer's instructions. Absorbance was measured at a wavelength of 450 nm. Data shown are mean values±SEM obtained from at least four independent experiments all performed in duplicate.
For each experiment blood from a different donor was used.
as §1, with “experiments” for “experiment”, “from” for “from at least”, “experiments. For 2sGKY25, the data shown are mean values±SEM obtained from two independent experiments.” for “experiments all performed in duplicate.”
as §1, with “experiments” for “experiment”, “from” for “from at least”, “experiments.” for “experiments all performed in duplicate.”

[3] = tested on: P. aeruginosa O1; assay: Viable count assay (VCA), P. aeruginosa; assay type: cell-based; conditions: peptide concentration and salt not given
[4] = tested on: E. coli ATCC 25922; assay: Viable count assay (VCA), E. coli; assay type: cell-based; conditions: peptide concentration and salt not given
[5] = tested on: S. aureus ATCC 29213; assay: Radial diffusion assay (RDA), S. aureus; assay type: cell-based; conditions: zone of clearance; peptide concentration and salt not given
[6] = tested on: E. coli, P. aeruginosa O1, and S. aureus; assay: MIC assay; assay type: cell-based
[7] = tested on: E. coli, P. aeruginosa O1, and S. aureus; assay: Radial diffusion assay (RDA), statements on all strains; assay type: cell-based; conditions: Example 1
[8] = tested on: E. coli, P. aeruginosa O1, and S. aureus; assay: Viable count assay (VCA), statements on all strains; assay type: cell-based
[9] = tested on: P. aeruginosa O1; assay: Radial diffusion assay (RDA), P. aeruginosa; assay type: cell-based; conditions: zone of clearance; peptide concentration and salt not given
[10] = tested on: S. aureus and P. aeruginosa O1 membrane; assay: Live/Dead assay and transmission electron microscopy; assay type: cell-based
[11] = Dynamic light scattering (DLS), hydrodynamic radii; assay type: physicochemical; conditions: 1 mM peptide, 10 mM Tris pH 7.4 or 10 mM NaOAc pH 5
[12] = tested on: E. coli ATCC 25922; assay: Radial diffusion assay (RDA), E. coli; assay type: cell-based; conditions: zone of clearance; peptide concentration and salt not given
[13] = tested on: S. aureus ATCC 29213; assay: Viable count assay (VCA), S. aureus; assay type: cell-based; conditions: peptide concentration and salt not given

Row | SMILES | tendency to oligomerize in solution [1] | anti-inflammatory activity in LPS-stimulated blood (TNF-α and IL-1β release), in words [2] | Anti-bacterial activity (reuction in Log), P. aeruginosa, VCA [3] [log10] | Anti-bacterial activity (reuction in Log), E. coli, VCA [4] [log10] | Anti-bacterial activity, S. aureus, RDA [5] [mm] | antimicrobial activity in MIC assay, in words [6] | antimicrobial activity by RDA, w/o or with NaCl, in words [7] | bactericidal activity in solution (VCA), in words ([8]; 10 mM Tris pH 7.4) | killing effect in solution (VCA), in words ([8]; presence of salt or human plasma) | Anti-bacterial activity, P. aeruginosa, RDA [9] [mm] | inhibition of cytokine release in blood, peptide added after LPS ([2]; blood first stimulated with LPS for 30 min, then peptide) | mode of killing (membrane) [10] | size of hydrodynamic radii of particles in solution [11] | Anti-bacterial activity, E. coli, RDA [12] [mm] | Anti-bacterial activity (reuction in Log), S. aureus, VCA [13] [log10]
1 | CC[C@H](C)[C@H](NC(=O)[C@H](Cc1c[nH]c2ccccc12)NC(=O)[C@H](CCCCN)NC(=O)[C@H](CCCCN)NC(=O)[C@@H](N)CC(C)C)C(=O)N[C@@]1(C)CCCC=CCCC[C@@](C)(C(=O)N[C@@H](CCC(N)=O)C(=O)N[C@@H](Cc2ccccc2)C(=O)NCC(=O)N[C@@H](CCC(=O)O)C(=O)O)NC(=O)[C@H]([C@@H](C)CC)NC(=O)[C@H](C(C)C)NC(=O)[C@H](CCCCN)NC1=O [sLKK14, LKKWIX1KVIX2QFGE] (H-LKKWI[S5]KVI[S5]QFGE-OH; staple 6-10) | prone to oligomerize once in solution | losing its immunomodulatory effect |  |  |  |  |  |  |  |  |  |  |  |  | 
2 | CC[C@H](C)[C@H](NC(=O)[C@H](Cc1c[nH]c2ccccc12)NC(=O)[C@H](CCCCN)NC(=O)[C@H](CCCCN)NC(=O)[C@H](CC(C)C)NC(=O)[C@H](CCCNC(=N)N)NC(=O)[C@H](Cc1ccccc1)NC(=O)[C@@H](NC(=O)[C@@H](N)Cc1c[nH]cn1)C(C)C)C(=O)N[C@@]1(C)CCCC=CCCC[C@@](C)(C(=O)N[C@@H](CCC(N)=O)C(=O)N[C@@H](Cc2ccccc2)C(=O)NCC(=O)N[C@@H](CCC(=O)O)C(=O)O)NC(=O)[C@H]([C@@H](C)CC)NC(=O)[C@H](C(C)C)NC(=O)[C@H](CCCCN)NC1=O [sHVF18, HVFRLKKWIXKVIXQFGE] |  | efficiently and in dose-dependent manner reduced TNF-α and IL-1β secretion | 0 | 0 | 0.8 | stronger activity towards Gram-positive bacteria | active in the same manner independently of the conditions | more bactericidal than HVF18 on all strains evaluated | stronger killing effect than its linear form | 1.3 | lower, but still significant | killing is mediated through bacterial membrane permeabilization and disruption | significantly reduced size compared to HVF18 at both pHs | 2.4 | 1
